Reference: the supplement of paper PMC11417369
Some of the results follow.

What follows are sequences tested on PF3D7_0420300 AP2 domain 1 (GST-tagged) (assay: gcPBM binding intensity (ln(normalized median fluorescence intensity)); higher = stronger DNA binding).
How it was run: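 The binding buffer was 1× PBS containing 1% milk, 0.2 mg/ml BSA, 0.5% salmon testes DNA and 0.03% Triton X-100. In it, GST-tagged P. falciparum DNA-binding domains expressed in E. coli were applied for 1 h to an Agilent 4 × 180k array of primer-extended double-stranded 36-bp intergenic genomic probes plus negative controls. Binding intensity, read with Alexa488 anti-GST antibody and a 488 nm scan, is the highest Masliner-normalised natural-log median intensity across replicate spots of either probe orientation.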

Sequence | gcPBM binding intensity (ln)
TACCCAAAGTTACATACACACTAATATTTACACCAT [CACACA_site4709] | 9.64
ATATGAAGTTATATAGTGCACATGTACAACCAAATC [GTGCAC_site9974] | 9.6
TTCTATATATATATAGACAAACGATAAAATAAAAAA [GTGCAC_negctrl_site142] | 9.29
TAATAATAGTGAGAGTGTACTTTAAATAAAATATAT [XGTACX_site2850] | 9.33
AAAGAATTTAAATATTGTACGCAATATATAAAAAAA [XGTACX_site7616] | 9.07
TAATATTATTATTTTACACACTTTTTTCCTTTTATC [CACACA_site2457] | 9.45
AAAAGTACAATATATATGTATGTGTATAGAATGGTT [TGCATGCA_negctrl_site76] | 9.56
TACAATTTGATATATACACACAAATAAATTATGCTT [CACACA_site6534] | 9.37
ATAATATTATACTTTGCACACATCTGAAATGACATA [CACACA_site3952] | 9.45
AAAAAACAGACATACACACACACACCCATATATATA [CACACA_site3392] | 10.2
TTTGATAAAATTGATATCCTATAATTATATAAATAA [GTGCAC_negctrl_site317] | 8.83
GATAAAATAAAAGTGGGTACTTAAATATATATATAA [XGTACX_site8457] | 9.28
GGATAAGATGTATATACACACAATTTAAAAAAATAA [CACACA_site910] | 9.35
AATACAATTTTTAACACACACACAATAATACAGATA [CACACA_site4823] | 10.2
GTGTAATTTATTGTGTTGCACTTTTTTTTTTTTTTT [GTGCAC_site9644] | 9.46
AAGATAGACTCATATGCATGCATTCACATACCAACA [TGCATGCA_site179] | 9.31
TTAATATAGGAATATGCACACATATATACATACATA [CACACA_site8432] | 9.39
ATTCTATATTTAAATGCATGCACTTTCTATTTTTTT [TGCATGCA_site435] | 9.53
TTTAATTTGTTATACACACACAAAAAAAATTATAAA [CACACA_site3937] | 9.5

Sequence | gcPBM binding intensity (ln)
GCTAAAAGTATATGCACACACATATAGATGCACATA [CACACA_site6868] | 9.55
GACACTTTGAAGGGTACATGCAGAAAAAAAAAAAAA [TGCATGCA_site89] | 9.01
TTTTATTTATCTAATTGTACTCATTCTTTTTTGATG [XGTACX_site2876] | 9.31
AATGTGCCCACGCGTACACACAAAAAAAGAAAAAAA [CACACA_site2003] | 9.37
ATAAAATAATTAATGGGTACATAATTAAATAAAGAG [XGTACX_site3309] | 9.52
TTTTAAAAAAAAAAAAAAAAAATTAAAATAATTCAA [TGCATGCA_negctrl_site69] | 8.56
AAGAAAAAAAAAAAAAAAAAAAAAAAAAATTTATGA [TGCATGCA_negctrl_site294] | 8.81
CAGTTATTTTAATGTGGTACACAATTTTAAAATTAT [XGTACX_site8571] | 9.01
AAATATAATTTGCGATGTACACATATATATTTATTT [XGTACX_site1568] | 9.27
TGAAATGATATATAAACACACATATATAAATATGTA [CACACA_site7616] | 9.35
TACCTATACCTATACACACACACACGGAAATAAATA [CACACA_site6750] | 10.3
ATATAAAATGAACATAGTACTTTTTATATATTTTAA [XGTACX_site7461] | 8.9
AATTTTATAAAAAGTAGTACATATCAAACACCTTGA [XGTACX_site2297] | 9.16
TGACTTTTTTTTTTTTTTTTTTTTTTTTATCTTTTT [CACACA_negctrl_site481] | 9.16
TTATGATTATAACGTTTTGACATTAGGCATATATAT [CACACA_negctrl_site1396] | 9.01
TATATCATAAAAAATTGTACATATATATATTATATA [XGTACX_site6726] | 9.1
TGATGGGACATAAATATTGAGATGATCATAAGATAA [TGCATGCA_negctrl_site276] | 9.07
AAAGATAATATATGCACACATATAAATATATAAATA [CACACA_site3477] | 9.35
TATTTATTATATAAATGTACATAATATATGTATGTC [XGTACX_site2815] | 9.06

Sequence | gcPBM binding intensity (ln)
AAAAAAAAAAAAAGTACACACTTTTGCGTACAAGTA [CACACA_site5672] | 9.32
ATTCTGAATGTTATGCGTACATATTAATCCTATTTA [XGTACX_site1216] | 9.22
TAAGGTTCATTAAAGTGTACACATAAATACCGTAAC [XGTACX_site8212] | 9.38
TGTAATAATTATTGCACGCACACAAAAACCTATAGA [CACACA_site2932] | 9.48
AAGTAAATATAATAAGGTACACATAAATAAATAAAT [XGTACX_site1740] | 9.62
GGAAACACGATATATACACACATATTTATATTTATA [CACACA_site6250] | 9.65
TCCAAATAAATATATTGTACAGAATTATTGATACCT [XGTACX_site327] | 9.14
ATGTTGTTATAAAGAGTGCAACGTATATGTATCCTT [GTGCAC_site9935] | 9.32
AGAAAAGGAAAATAAACATGCAAAAATAATATTAAA [TGCATGCA_site337] | 9.55
TATATACCACATTGTTGTACGACACATTTACATTTT [XGTACX_site8370] | 9.59
ATGTCTTTGAAAAAAAGTACTTAAAATTATAAAAAT [XGTACX_site147] | 8.94
ACTGTCGTTTTAAAGAGTACATAAAATATTAAATTA [XGTACX_site3589] | 8.92
TTCTTTTAAAGGTATACATGCGCATGGATTTTTCAT [TGCATGCA_site223] | 9.06
AATTAAAAAATTATCACACATATATATATATATATA [CACACA_site5789] | 9.09
TCAAAGCACAGATACACACACATATATATATATATA [CACACA_site287] | 9.59
AAAACTATTAATGCAAAAAATAAAATATAATAATAA [XGTACX_negctrl_site524] | 9.27
AAGTTAACAATATGAAGTACAAATGAAAAAAAAAAA [XGTACX_site666] | 9.5
TTGTTATAGAAGCATTCACACACACCCATACATACA [CACACA_site8414] | 9.87
